The results in this text go back to paper PMC12040169 (PLOS Biology, 2025).

Some of the results follow.

This assay concerns T1, C. trachomatis L2/434/Bu expressing GFP (CTL2-GFP).
T1 construct: L2/434/Bu GFP intracellular growth in HeLa cells
Also on record: species or system HeLa; C. trachomatis total inclusion area by high-content imaging, normalised to DMSO. Particulars: total inclusion area; 28.5 h, 10 µM; inhibitor. In short, it runs like this: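 Imaging read-out: GFP inclusions and Hoechst nuclei captured by high-content imaging after fixation. Inclusion area/number = chlamydial growth; nuclei count = host cell viability. MIC calculated per earlier method.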
As for `O=C(Nc1cccc2cc[nH]c12)c1cc(F)cc(Cl)c1` [CBK160075], the “% of control remaining” value is listed as 82.4075. For `COC(=O)c1csc(-c2ccc(Cl)cc2Cl)n1` [CBK067776], the “% of control remaining” value is 91.9771. Take `CC(C)NC(=O)C1CN(Cc2ccccc2)CC12CCc1ccccc1C2NC(=O)CN` (centres unmarked) [CBK283093]: the “% of control remaining” value was 117.309. Regarding `O=C(C1CCC1)N1CCCC1c1nnc(-c2ccsc2)o1` (centres unmarked) [CBK283365], the “% of control remaining” value worked out at 120.935.

As for `O=C(CC1SC(=O)NC1=O)Nc1ccccc1O` (centres unmarked) [CBK057932], the “% of control remaining” value amounted to 109.755. As for `Cc1nc2c(c(=O)[nH]1)CN(Cc1cccc(Oc3ccccc3)c1)CC2` [CBK283951], the “% of control remaining” value is reported as 84.3954. The result for `CCNS(=O)(=O)c1ccc(NC(=O)c2nc3nc(C)cc(C(F)F)n3n2)cc1` [CBK266146] reads 130.082; that for `COc1ccc(F)cc1-c1ccc(S(=O)(=O)Nc2nc(CC(=O)N3CCOCC3)cs2)cc1` [CBK200031], 98.1894; that for `O=C(CSc1nc2ccccc2[nH]1)Nc1cccc(NC(=O)C23CC4CC(CC(C4)C2)C3)c1` [CBK265702], 94.1492. With `Cc1nc2ccc(Cl)cn2c1CN1CCN(C2CCCC2)C(=O)C1` [CBK281452], the “% of control remaining” value was 96.0224. As for `Cc1cccn2c(=O)cc(CN3CCc4nn(C)c(=O)cc4C3)nc12` [CBK305514], the “% of control remaining” value is recorded as 14.7517. Next, `CN1Cc2nc[nH]c2C[C@H]1C(=O)NCc1ccco1` [CBK288979]: 97.2525; `O=S(=O)(Cc1cccc(C(F)(F)F)c1)c1csc2ccnc(N3CCNCC3)c12` [CBK039166C]: 95.8962.

`COc1ccc([C@H](NC(=O)C2CCN(C(=O)OCc3ccccc3)CC2)c2ccccc2C)cn1` [CBK084639]: the “% of control remaining” value was determined as 96.4687. Next, `O=C1c2ccc(Oc3ccc(Oc4ccc5c(c4)C(=O)N(c4cccnc4)C5=O)cc3)cc2C(=O)N1c1cccnc1` [CBK262195]: 96.9992. Next, `C[C@@H](Nc1nc(-c2cccc(-c3ccccc3)c2)cnc1N)c1ccccc1` [CBK063704]: 136.263; `CC(C(=O)O)N(c1ccc(Cl)cc1)S(C)(=O)=O` (centres unmarked) [CBK267945]: 94.1041. Next, `O=C(CSc1nnc(-c2cccnc2)o1)c1ccc(Oc2ccccc2)cc1` [CBK266327]: 106.683.

On to `Cn1c(=O)n(C)c2cc(CNCc3cccnc3)ccc21` [CBK268432C], for which the “% of control remaining” value came to 118.441. For `Oc1ccc(Br)cc1CN1CCN(Cc2cccc3ccccc23)CC1` [CBK263662], the “% of control remaining” value worked out at 92.3667. Turning to `CN(CC1CC1)C(=O)Cn1cnc2c(F)cc(Br)cc2c1=O` [CBK305227], the “% of control remaining” value was determined as 65.0386. Turning to `CCNC(=O)c1cc2c(=O)n3ccccc3nc2n(C)c1=N` [CBK287762], the “% of control remaining” value was 67.0008. Next, `Cc1noc(C)c1CC(=O)N1CCC2(C/C=C/C[C@H]3COCC[C@@H]3NC(=O)CNC2=O)CC1` [CBK292071]: 98.4813; `CC(=O)N1CCc2cc(C(O)CN3CCN(c4nsc5ccccc45)CC3)ccc21` (centres unmarked) [CBK283092]: 77.5645. Take `O=C(CO)N1CC2(CCN(CCn3cccc3)CC2)c2ccccc21` [CBK143953]: the “% of control remaining” value came out at 82.1486. Next, `Cc1cc(C)cc(-c2ccc(CC3(C(=O)NCC4CCCOC4)CCOCC3)cc2)c1` (centres unmarked) [CBK286524]: 96.8101; `CCc1c(C(=O)N(C)Cc2cnn(C(C)C)c2)[nH]c2ccccc12` [CBK307501]: 51.5025; `CCOC(=O)CC(=O)COc1noc2nc(C)cc(C)c12` [CBK269595]: 98.8969.

Take `CN(C)CCN(C)c1nc(-c2ccc3c(c2)OCO3)cn2ccnc12` [CBK066381]: the “% of control remaining” value is reported as 97.4149. As for `O=C1COc2ccccc2C/C=C/CC2(CCN(C(=O)Cn3cccn3)CC2)C(=O)NCCN1` [CBK292003], the “% of control remaining” value came out at 106.212. Regarding `O=C1CCC(N2CCN(c3ncnc4ccccc34)CC2)CCN1` (centres unmarked) [CBK304393], the “% of control remaining” value was found to be 38.9895. For `Cc1nc(-c2ccc(S(=O)(=O)N3CCC(Cc4ccccc4)CC3)cc2)cs1` [CBK265494], the “% of control remaining” value was found to be 83.9084. The result for `Nc1ccc(-c2nnn(CC(=O)NC3CCCCC3)n2)cc1` [CBK135771] reads 99.928; that for `CCOC(=O)CN1C(=O)N2CCCN=C2c2ccc(Cl)cc21` [CBK284401], 73.0219. With `Cc1ccc(C(=O)Nc2ncn(CC(=O)N3CCCCCC3)n2)s1` [CBK304951], the “% of control remaining” value turned out to be 44.6774. As to `O=C(O)CNS(=O)(=O)c1cc(Br)c(Cl)s1` [CBK034455], the “% of control remaining” value came out at 87.9437. `CNc1ncc(CN(C)C(=O)Cn2nc(C)c3ccccc3c2=O)cn1` [CBK307704]: the “% of control remaining” value is 104.687. The result for `CN1CCN(CCCNC(=O)N2CCCC(CO)C2)CC1` (centres unmarked) [CBK156029] reads 106.998; that for `Cc1ccc(N2C(=O)CSC23C(=O)Nc2ccccc23)cc1Br` (centres unmarked) [CBK093472], 79.295. The result for `CCCn1nc(COc2cccc(F)c2)nc1C1CCN(C(C)=O)CC1` [CBK306637] reads 63.4855. Take `Cc1cccc(=O)n1CCCn1cc(C2CCOC2)nn1` (centres unmarked) [CBK307368]: the “% of control remaining” value turned out to be 77.197.

Turning to `O=C(O)c1cccc(NC(=S)NC(=O)C(c2ccccc2)c2ccccc2)c1` [CBK265053], the “% of control remaining” value is on record as 100.499. For `Cc1nnc2c(=O)n(CC(=O)N3CCN(C(C)C)CC3)c3cccnc3n12` [CBK288601], the “% of control remaining” value turned out to be 102.423. Next, `Cc1nn(C)c(O)c1Cc1c(F)cccc1Cl` [CBK067759]: 108.025; `Cc1cc2c(cc3c(=O)n(CC(=O)N4CCCC4)nc(C)n32)o1` [CBK283631]: 84.7826. Regarding `O=c1cc(N2CCOCC2)oc2ccccc12` [CBK008244G], the “% of control remaining” value is recorded as 106.02. As for `CC(=O)N1CCCc2cc(C(O)CN(C)Cc3ccccc3)ccc21` (centres unmarked) [CBK282149], the “% of control remaining” value was 103.285. Next, `OCCOCCNc1ncnc2sc(-c3ccccc3)cc12` [CBK265951]: 75.1321. Next, `CCOC(=O)c1cnc2ccc(Cl)cc2c1NC` [CBK307605]: 54.3629. Next, `CN(Cc1ccccc1)C(=O)CNS(=O)(=O)c1ccc([N+](=O)[O-])cc1` [CBK268586]: 91.1743; `COCCN(C(=S)Nc1ccc(OC)cc1)C(C)c1cccnc1` (centres unmarked) [CBK294471]: 123.015. With `Cc1cccc(-c2n[nH]c(=S)n2CC(=O)Nc2cccc(C#Cc3ccccn3)c2)c1` [CBK296633], the “% of control remaining” value came out at 89.5516. Next, `COc1ccc(N2C(=O)CC(NNC(N)=O)C2=O)cc1` (centres unmarked) [CBK263080]: 86.7894.

In the case of `COc1ccc(-c2cnn(-c3ccc(OC(F)(F)F)cc3)n2)cc1` [CBK112773], the “% of control remaining” value came out at 81.4238. The result for `Cc1csc2ncnc(N3CCN(C(=O)C4CC4)CC3)c12` [CBK023593] reads 117.413; that for `NCCCNc1ccc(C(=O)Nc2ccc(Cl)cc2)cc1[N+](=O)[O-]` [CBK267880], 80.7234; that for `O=C(NCC1CCCCC1)c1ccccc1-n1cccc1` [CBK149603], 90.7224. As to `O=c1cc(Nc2ccc3c(c2)OCO3)[nH]c(=O)n1-c1ccc(Cl)cc1` [CBK287507], the “% of control remaining” value is listed as 103.485.

As to `Cc1cc(O)cc(=O)n1Cc1cccnc1` [CBK291123], the “% of control remaining” value was 91.7235. Next, `Cc1ccn(CCC(=O)N2CCC3(C/C=C/C[C@H]4COCC[C@@H]4NC(=O)CNC3=O)CC2)n1` [CBK292070]: 109.124; `COc1ccc(NC(=O)CC(C(=O)O)N2CCOCC2)cc1` (centres unmarked) [CBK266955]: 93.8572.

Consider `O=C(Nc1ccccc1)[C@H]1CN2CCC1C[C@@H]2Cn1cc(C2(O)CCCC2)nn1` (some centres unmarked) [CBK289091], for which the “% of control remaining” value is given as 106.685.

On to `CCOc1ncccc1C(=O)N(Cc1nnc(-c2ccc(Cl)cc2)o1)C1CC1` [CBK296934], for which the “% of control remaining” value is 99.0392. With `CC(=O)Nc1c(-c2ccc(C)cc2)c(=O)c2ccccc2n1C` [CBK287775], the “% of control remaining” value was 109.788. Next, `CSc1nnc(CCCNC(=O)c2cccc(C#N)c2)n1CC(C)C` [CBK306023]: 62.835; `COc1ccc(-n2c(CNCc3ccc4c(c3)OCO4)nc3ccccc3c2=O)cc1` [CBK074522]: 78.1703; `O=C(Nc1cccc(Cl)c1)c1nnc(C(=O)NC2CCCCC2)s1` [CBK294406]: 110.419.

Turning to `O=C(O)Cc1ccc(Oc2ncc(C(F)(F)F)cc2Cl)cc1` [CBK161657], the “% of control remaining” value is reported as 126.055. For `CCC(C(=O)O)N1C(=O)NC2C1N(C)C(=O)N2C` (centres unmarked) [CBK287039], the “% of control remaining” value came out at 101.94. With `Cc1cccnc1C1(O)CCN(C(=O)Cc2ccccc2Cl)CC1` [CBK283682], the “% of control remaining” value was 108.036. Next, `CSc1nc2c(cc1C#N)CCC2` [CBK026532]: 38.1446.

In the case of `CC(=O)N1CCc2c([nH]c3ccccc23)C1CNCc1ccc(F)cc1` (centres unmarked) [CBK066968], the “% of control remaining” value was 102.223. Take `O=C(c1ccccc1)N1CCC(c2nnc(-c3ccsc3)o2)CC1` [CBK283371]: the “% of control remaining” value worked out at 113.274. The result for `Cc1ccc(C(=O)N2CCC(C(=O)NC(c3ccccc3)c3ccsc3)CC2)cc1` (centres unmarked) [CBK060154] reads 101.448. As for `O=c1c2cc(F)ccc2nc2n1CCN(Cc1ccsc1)CC2` [CBK284860], the “% of control remaining” value amounted to 76.3022. The result for `COc1ccc(-c2nc(-c3ccncc3)ncc2C(=O)NCc2ccncc2)cc1` [CBK291112] reads 122.348; that for `COc1ccc(OC)c(S(=O)(=O)n2ccc3c(N4CCNCC4)nccc32)c1` [CBK059067C], 80.3419; that for `NC(=O)c1cccc(-c2nc(-c3ccc(F)cc3F)cnc2N)c1` [CBK064109], 96.2865.

As for `COC(=O)C1Cc2cc3c(cc2C(c2cc(OC)c(OC)c(OC)c2)N1)OCO3` (centres unmarked) [CBK200104T], the “% of control remaining” value turned out to be 65.1077.

Turning to `CN(C)C(=O)Cn1cccc2cc(-c3ccc(F)cc3)nc1-2` [CBK285349], the “% of control remaining” value is recorded as 100.566.
